For 60 compounds, relative growth results are on record in the supplement of paper PMC9446081.

SMILES strings stand for the structures. Hit rate of the full screen: of about 39,000 compounds, about 220 (0.56%) showed activity. Some of the results follow.
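Also: static incubation at 37 °C against the wild-type strain, values averaged over two biological replicates.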

This assay relates to Escherichia coli K-12 BW25113. The assay can be described thus: relative growth (OD600 normalised to plate interquartile mean) (fraction); higher = less growth inhibition, active = 0.2 or less. As to conditions: 50 µM; LB; incubation time: overnight (16-24 h).
For `C[C@@H]1CN([C@H](C)CO)C(=O)Cc2cc(NC(=O)CCC(F)(F)F)ccc2O[C@H]1CN(C)Cc1ccc(Oc2ccccc2)cc1`, the relative growth is inactive: 0.99. The same measure for `O=C(O)/C=C/C(=O)NCc1ccccc1`: inactive: 1.02. The same measure for `c1ncc(CC2CCNCC2)[nH]1`: inactive: 0.985. `C[C@@H]1CCCCO[C@@H](CN(C)C(=O)Nc2ccc3c(c2)OCO3)[C@H](C)CN([C@H](C)CO)C(=O)c2cc(NS(=O)(=O)c3ccccc3)ccc2O1`: the relative growth is inactive: 1.04. Consider `C[C@H](CO)N1C[C@H](C)[C@@H](CN(C)Cc2ccc(Oc3ccccc3)cc2)Oc2ccc(NS(=O)(=O)c3ccccc3)cc2C1=O`, for which the relative growth is inactive: 0.971. The figure for `COc1ccc(S(=O)(=O)N(C)C[C@@H]2OCCCC[C@H](C)Oc3ccc(NC(=O)CCC(F)(F)F)cc3C(=O)N([C@@H](C)CO)C[C@@H]2C)cc1` is inactive: 0.989; for `COc1ccc2c3c([nH]c2c1)[C@H](CO)N(C[C@]13CCN(CC1)S(=O)(=O)c1cn(cn1)C)C(=O)Nc1ccc(cc1)F` it is inactive: 0.992. `O=C(CCCCCNC(=O)OC[C@]12N=C3SCC(=O)N3[C@H](c3ccccc3O1)[C@H]2COC(=O)c1ccccc1)NO`: the relative growth was inactive: 0.996. The same measure for `COc1ccc(NC(=O)Nc2cccc3c2O[C@@H](CN(C)Cc2ccc(Cl)c(Cl)c2)[C@H](C)CN([C@@H](C)CO)C3=O)cc1`: inactive: 1.03; for `C[C@H](CO)N1C[C@H](C)[C@H](CN(C)S(C)(=O)=O)Oc2cc(C#Cc3ccc(F)cc3)ccc2S1(=O)=O`: inactive: 1.01.

As to `CON=C(C(=O)NC1C(=O)N2C(C(=O)O)=C(CSC(=O)c3ccco3)CSC12)c1csc(N)n1.Cl` (stereo not given), the relative growth is active: 0.0447. The same measure for `Cc1noc(C)c1S(=O)(=O)N(C)C[C@H]1OCCCC[C@H](C)Oc2ccc(NC(=O)Nc3ccc(C(F)(F)F)cc3)cc2C(=O)N([C@H](C)CO)C[C@H]1C`: inactive: 0.975. Take `COCC(=O)Nc1ccc2c(c1)OC[C@H](C)N(Cc1ccccc1OC)C[C@H](C)[C@@H](OC)CN(C)C2=O`: the relative growth was inactive: 0.945. The same measure for `COc1ccc(cc1)S(=O)(=O)N1CC[C@]2(CC1)CN([C@@H](CO)c1c2c2ccc(cc2n1C)OC)C(=O)CN(C)C`: inactive: 1.03; for `Cc1noc(C)c1NC(=O)N(C)C[C@H]1OCCCC[C@@H](C)Oc2ccc(NS(=O)(=O)c3ccc(F)cc3)cc2C(=O)N([C@@H](C)CO)C[C@H]1C`: inactive: 0.999.

As to `Cc1noc(C)c1S(=O)(=O)Nc1ccc2c(c1)C(=O)N([C@H](C)CO)C[C@H](C)[C@H](CN(C)CC1CC1)O2`, the relative growth is inactive: 1.01. For `O=C(C[C@H]1C[C@@H]2c3cc(NC(=O)Nc4ccc(C(F)(F)F)cc4)ccc3O[C@@H]2[C@H](CO)O1)NCCc1ccccc1`, the relative growth was inactive: 1.02.

`COc1ccc(S(=O)(=O)N(C)C[C@H]2OCCCC[C@@H](C)Oc3ccc(NC(=O)c4ccccc4)cc3C(=O)N([C@@H](C)CO)C[C@H]2C)cc1`: the relative growth is inactive: 1.02. Take `Cc1ccc(S(=O)(=O)N(C)C[C@H]2Oc3ncc(C#CCC(C)C)cc3C(=O)N([C@@H](C)CO)C[C@H]2C)cc1`: the relative growth was inactive: 0.977. As to `COc1ccc(NC(=O)N(C)C[C@@H]2OCCCC[C@@H](C)Oc3ccc(NC(=O)Nc4ccc(C(F)(F)F)cc4)cc3C(=O)N([C@@H](C)CO)C[C@H]2C)cc1`, the relative growth was inactive: 1.04. Consider `COc1ccc(NC(=O)N(C)C[C@H]2Oc3ncc(C#CC(C)C)cc3C(=O)N([C@H](C)CO)C[C@H]2C)cc1`, for which the relative growth was inactive: 1.02.

In the case of `OC[C@H]1CCCN1CC1CC1`, the relative growth was inactive: 1.01. For the compound `Cc1noc(C)c1S(=O)(=O)Nc1ccc2c(c1)C(=O)N([C@@H](C)CO)C[C@@H](C)[C@@H](CN(C)CC1CCCCC1)OCCCC[C@@H](C)O2`, the relative growth was inactive: 1.04. `CCCNC(=O)N1C[C@]2(CN(C2)S(=O)(=O)c2ccc(cc2)OC)c2c(n(c3cc(ccc23)OC)C)[C@@H]1CO`: the relative growth is inactive: 1.01.

Turning to `C[C@@H]1CN([C@@H](C)CO)C(=O)Cc2cc(NS(=O)(=O)c3ccc(Cl)cc3)ccc2O[C@H]1CN(C)S(=O)(=O)c1cn(C)cn1`, the relative growth was inactive: 0.982.

Consider `CCC(CCC(C)C1CCC2C3CCC4CC(O)CCC4(C)C3CCC12C)C(C)C` (stereo not given), for which the relative growth is inactive: 0.904. The same measure for `C=C[C@H]1[C@H](O[C@H]2O[C@@H](CO)[C@@H](O)[C@@H](O)[C@@H]2O)OC=C(C(=O)OC)[C@H]1CCOC(=O)c1cc(O)c(O)c(O)c1`: inactive: 1. `C[C@@H]1CN([C@@H](C)CO)C(=O)c2cc(NC(=O)Nc3ccc(C(F)(F)F)cc3)ccc2O[C@@H]1CN(C)C(=O)Nc1cccc2ccccc12`: the relative growth was inactive: 0.999. For `C[C@@H]1CN([C@H](C)CO)C(=O)c2cc(-c3cccnc3)cnc2O[C@@H]1CN(C)C(=O)Nc1ccc2c(c1)OCO2`, the relative growth was inactive: 1.01.

For `COc1ccsc1CN`, the relative growth was inactive: 0.97. The figure for `O=C(C[C@@H]1C[C@@H]2c3cc(NC(=O)NC4CCCC4)ccc3O[C@@H]2[C@H](CO)O1)NCCN1CCCCC1` is inactive: 0.984. The same measure for `Cc1noc(C)c1NC(=O)N(C)C[C@@H]1Oc2ccc(NC(=O)CCCN(C)C)cc2C(=O)N([C@H](C)CO)C[C@@H]1C`: inactive: 1.01; for `CC1CCN(C(=O)N2c3ccccc3Sc3ccccc32)CC1`: inactive: 0.986; for `C[C@H](CO)N1C[C@H](C)[C@H](CN(C)Cc2ccc(Cl)c(Cl)c2)Oc2ccc(NC(=O)Cc3cn(C)c4ccccc34)cc2CC1=O`: inactive: 1.06.

Regarding `COc1ccc(C[C@H]2c3cc(OC)c(OC)cc3CC[N@+]2(C)CCC(=O)OCCCCCOC(=O)CC[N@+]2(C)CCc3cc(OC)c(OC)cc3[C@@H]2Cc2ccc(OC)c(OC)c2)cc1OC`, the relative growth was inactive: 0.719. The same measure for `C[C@@H]1CN([C@@H](C)CO)C(=O)c2cc(-c3ccc(F)cc3)cnc2O[C@H]1CN(C)C(=O)Cc1ccccn1`: inactive: 1.02. The figure for `C[C@H](CO)N1C[C@H](C)[C@H](CN(C)Cc2cccc(O)c2)OCc2ccccc2-c2c(n(C)c3ccccc23)C1=O` is inactive: 0.974; for `O=C(O)/C=C/c1ccc(O[C@@H]2O[C@H](CO)[C@@H](O)[C@H](O)[C@H]2O)cc1` it is inactive: 1.02; for `CNC[C@H]1OCCCC[C@H](C)Oc2ccc(NS(=O)(=O)c3c(C)noc3C)cc2C(=O)N([C@H](C)CO)C[C@H]1C` it is inactive: 1. The figure for `C[C@@H]1CCCCO[C@@H](CN(C)CC2CC2)[C@@H](C)CN([C@H](C)CO)C(=O)c2cc(NC(=O)CCC(F)(F)F)ccc2O1` is inactive: 0.982; for `Cc1ccc(S(=O)(=O)N(C)C[C@@H]2Oc3ccc(NS(=O)(=O)c4cccs4)cc3C(=O)N([C@H](C)CO)C[C@@H]2C)cc1` it is inactive: 1.02. Turning to `C[C@@H]1CN([C@@H](C)CO)C(=O)c2cccc(NS(=O)(=O)c3cn(C)cn3)c2O[C@H]1CN(C)C(=O)Nc1ccc(F)cc1`, the relative growth is inactive: 0.988. The same measure for `CC(C)(O)CC(=O)NCCn1ccc2ncnc(Nc3ccc(Oc4cccc(C(F)(F)F)c4)c(Cl)c3)c21`: inactive: 0.847; for `C[C@H]1CN([C@@H](C)CO)C(=O)CCCn2cc(nn2)CO[C@H]1CN(C)C(=O)Nc1ccc(N2CCCCC2)cc1`: inactive: 1.01.

Consider `C[C@H]1CN([C@@H](C)CO)C(=O)CCCn2cc(nn2)CO[C@@H]1CN(C)S(=O)(=O)c1cccc(C#N)c1`, for which the relative growth was inactive: 0.987.

As to `COc1cccc(S(=O)(=O)Nc2ccc3c(c2)C(=O)N(C)C[C@H](OC)[C@@H](C)CN(C(=O)Cc2cccnc2)[C@@H](C)CO3)c1`, the relative growth is inactive: 1.01. Consider `Cc1cccc(-c2nc3ccccc3n2CCC(C)C)c1`, for which the relative growth was inactive: 1.01. On to `C[C@@H]1CCCCO[C@H](CN(C)S(=O)(=O)c2cccs2)[C@@H](C)CN([C@@H](C)CO)C(=O)c2cc(NC(=O)Nc3ccccc3)ccc2O1`, for which the relative growth is inactive: 1.04. The figure for `C[C@@H]1CN([C@H](C)CO)C(=O)c2cc(NC(=O)Cc3ccccc3)ccc2O[C@@H]1CN(C)Cc1ccc(Oc2ccccc2)cc1` is inactive: 1.01. The same measure for `C[C@@H]1CN([C@H](C)CO)C(=O)c2ccccc2-c2ccccc2CO[C@@H]1CN(C)C(=O)Nc1ccc(-c2ccccc2)cc1`: inactive: 1.02. The figure for `COc1ccc(NC(=O)Nc2ccc3c(c2)CC(=O)N([C@@H](C)CO)C[C@H](C)[C@H](CN(C)S(C)(=O)=O)O3)cc1` is inactive: 1.05. For `O=c1c(O)c(-c2ccc(O)c(O)c2)oc2cc(O)ccc12`, the relative growth was inactive: 0.825. For the compound `CO[C@H]1CN(C)C(=O)c2ccc(NC(C)=O)cc2OC[C@@H](C)N(S(=O)(=O)c2cn(C)cn2)C[C@@H]1C`, the relative growth was inactive: 1.01. The same measure for `NCc1cccc(-c2ccco2)c1`: inactive: 0.983; for `CNS(=O)(=O)Cc1ccc2[nH]cc(CCN(C)C)c2c1`: inactive: 0.993. The same measure for `COc1cccc(C#Cc2ccc3c(c2)O[C@@H](CN(C)S(=O)(=O)c2ccccc2F)[C@@H](C)CN([C@@H](C)CO)S3(=O)=O)c1`: inactive: 1.01; for `C[C@@H]1CCCCO[C@H](CN(C)C(=O)Nc2ccc(C(F)(F)F)cc2)[C@H](C)CN([C@H](C)CO)C(=O)c2cc(NC(=O)Nc3ccccc3)ccc2O1`: inactive: 1.01; for `O=C(NCC1(c2nc(-c3ccccc3)cs2)CCOCC1)c1cccc(-c2noc(C(F)(F)F)n2)c1`: inactive: 0.969.

For the compound `COc1ccc(S(=O)(=O)Nc2ccc3c(c2)C(=O)N([C@H](C)CO)C[C@H](C)[C@@H](CN(C)Cc2ccccc2)OCCCC[C@@H](C)O3)cc1`, the relative growth was inactive: 0.877. With `COC(=O)C(CC#Cc1ccc2c(c1)[C@]1(C(=O)N2)[C@H](c2ccc(OCCO)cc2)N2[C@H](c3ccccc3)[C@H](c3ccccc3)OC(=O)[C@H]2[C@@H]1C(=O)N1CCc2cc(OC)c(OC)cc2C1)C(=O)OC`, the relative growth is inactive: 1.09.
